# Test results as given in the supplement of paper PMC8728848.
# This is one part of the list.
# Columns and labels:
# Assay in all cases: glycan array binding signal (z-score within array); higher = stronger binding
# Conditions in all cases: glycan notation: IUPAC condensed, linker removed
# [1] = biological target: Gal(b1-3)[Fuc(a1-4)]GlcNAc(b1-3)Gal(b1-4)[Fuc(a1-3)]GlcNAc
# Procedure, shortened: (§1)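 Glycan array binding is given as a within-array Z-score, which can be read as non-binding when negative. The arrays, 3228 of them, came from the Consortium for Functional Glycomics database and were retained only where the protein sequence was available. Z-scores were averaged across arrays of the same protein sequence at different concentrations or buffers and across linkers.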
# [2] = biological target: Gal(b1-3)[GlcNAc(b1-6)]GalNAc
# Procedure, shortened: as §1
# [3] = biological target: Gal(b1-3)[Neu5Ac(a2-6)]GalNAc
# Procedure, shortened: as §1
# [4] = biological target: Gal(b1-3)[Neu5Ac(a2-6)]GlcNAc(b1-6)Gal(b1-4)Glc
# Procedure, shortened: as §1
# [5] = biological target: Gal(b1-3)[Neu5Ac(b2-6)]GalNAc
# Procedure, shortened: as §1
# [6] = biological target: Gal(b1-4)GalNAc(a1-3)[Fuc(a1-2)]Gal(b1-4)GlcNAc
# Procedure, shortened: as §1
# [7] = biological target: Gal(b1-4)GalNAc(b1-3)[Fuc(a1-2)]Gal(b1-4)GlcNAc
# Procedure, shortened: as §1
# [8] = biological target: Gal(b1-4)Glc
# Procedure, shortened: as §1
# [9] = biological target: Gal(b1-4)Glc6S
# Procedure, shortened: as §1
# [10] = biological target: Gal(b1-4)GlcNAc
# Procedure, shortened: as §1
# [11] = biological target: Gal(b1-4)GlcNAc(b1-2)Man(a1-3)[Gal(b1-4)GlcNAc(b1-2)Man(a1-6)]Man(b1-4)GlcNAc(b1-4)GlcNAc
# Procedure, shortened: as §1
# [12] = biological target: Gal(b1-4)GlcNAc(b1-3)Gal(b1-4)Glc
# Procedure, shortened: as §1
# [13] = biological target: Gal(b1-4)GlcNAc(b1-3)Gal(b1-4)GlcNAc
# Procedure, shortened: as §1
# [14] = biological target: Gal(b1-4)GlcNAc(b1-3)Gal(b1-4)GlcNAc(b1-3)Gal(b1-4)GlcNAc
# Procedure, shortened: as §1
# [15] = biological target: Gal(b1-4)GlcNAc(b1-3)Gal(b1-4)[Fuc(a1-3)]GlcNAc(b1-3)Gal(b1-4)[Fuc(a1-3)]GlcNAc
# Procedure, shortened: as §1
# [16] = biological target: Gal(b1-4)GlcNAc(b1-3)GalNAc
# Procedure, shortened: as §1
# [17] = biological target: Gal(b1-4)GlcNAc(b1-3)[Gal(b1-4)GlcNAc(b1-6)]GalNAc
# Procedure, shortened: as §1
# [18] = biological target: Gal(b1-4)GlcNAc(b1-6)Gal(b1-4)GlcNAc(b1-6)GalNAc
# Procedure, shortened: as §1
# [19] = biological target: Gal(b1-4)GlcNAc(b1-6)GalNAc
# Procedure, shortened: as §1
# [20] = biological target: Gal(b1-4)GlcNAc(b1-6)[Gal(b1-3)]GalNAc
# Procedure, shortened: as §1
# [21] = biological target: Gal3S(b1-3)GalNAc
# Procedure, shortened: as §1
# [22] = biological target: Gal3S(b1-3)GlcNAc
# Procedure, shortened: as §1
# [23] = biological target: Gal3S(b1-3)[Fuc(a1-4)]GlcNAc
# Procedure, shortened: as §1
# [24] = biological target: Gal3S(b1-4)Glc
# Procedure, shortened: as §1
# [25] = biological target: Gal3S(b1-4)Glc6S
# Procedure, shortened: as §1
# [26] = biological target: Gal3S(b1-4)GlcNAc
# Procedure, shortened: as §1
# [27] = biological target: Gal3S(b1-4)GlcNAc6S
# Procedure, shortened: as §1
# [28] = biological target: Gal3S6S(b1-4)GlcNAc
# Procedure, shortened: as §1
# [29] = biological target: Gal3S6S(b1-4)GlcNAc6S
# Procedure, shortened: as §1
# [30] = biological target: Gal4S(b1-4)GlcNAc
# Procedure, shortened: as §1
# [31] = biological target: Gal4S6S(b1-4)GlcNAc
# Procedure, shortened: as §1
# [32] = biological target: Gal6S(b1-4)Glc
# Procedure, shortened: as §1
# [33] = biological target: Gal6S(b1-4)Glc6S
# Procedure, shortened: as §1
# [34] = biological target: Gal6S(b1-4)GlcNAc
# Procedure, shortened: as §1
# [35] = biological target: GalNAc(a1-3)Gal
# Procedure, shortened: as §1
# [36] = biological target: GalNAc(a1-3)GalNAc
# Procedure, shortened: as §1
# [37] = biological target: GalNAc(b1-3)Gal(a1-4)Gal(b1-4)GlcNAc
# Procedure, shortened: as §1
# [38] = biological target: GalNAc(b1-3)GalNAc
# Procedure, shortened: as §1
# [39] = biological target: GalNAc(b1-4)GlcNAc
# Procedure, shortened: as §1
# [40] = biological target: Glc(a1-4)Glc
# Procedure, shortened: as §1
# [41] = biological target: Glc(a1-6)Glc(a1-6)Glc
# Procedure, shortened: as §1
# [42] = biological target: Glc(b1-4)Glc
# Procedure, shortened: as §1
# [43] = biological target: Glc(b1-6)Glc
# Procedure, shortened: as §1
# [44] = biological target: GlcA(b1-3)Gal
# Procedure, shortened: as §1
# [45] = biological target: GlcA(b1-6)Gal
# Procedure, shortened: as §1
# [46] = biological target: GlcNAc(a1-3)Gal(b1-4)GlcNAc
# Procedure, shortened: as §1
# [47] = biological target: GlcNAc(a1-6)Gal(b1-4)GlcNAc
# Procedure, shortened: as §1
# [48] = biological target: GlcNAc(b1-2)Gal(b1-3)GalNAc
# Procedure, shortened: as §1
# [49] = biological target: GlcNAc(b1-2)Man(a1-3)[GlcNAc(b1-2)Man(a1-6)]Man(b1-4)GlcNAc(b1-4)GlcNAc
# Procedure, shortened: as §1
# [50] = biological target: GlcNAc(b1-3)Gal
# Procedure, shortened: as §1
# [51] = biological target: GlcNAc(b1-3)Gal(b1-3)GalNAc
# Procedure, shortened: as §1
# [52] = biological target: GlcNAc(b1-3)Gal(b1-4)Glc
# Procedure, shortened: as §1
# [53] = biological target: GlcNAc(b1-3)Gal(b1-4)GlcNAc
# Procedure, shortened: as §1
# [54] = biological target: GlcNAc(b1-3)Gal(b1-4)GlcNAc(b1-3)Gal(b1-4)GlcNAc
# Procedure, shortened: as §1
# [55] = biological target: GlcNAc(b1-3)GalNAc
# Procedure, shortened: as §1
# [56] = biological target: GlcNAc(b1-3)[GlcNAc(b1-6)]Gal(b1-4)GlcNAc
# Procedure, shortened: as §1
# [57] = biological target: GlcNAc(b1-3)[GlcNAc(b1-6)]GalNAc
# Procedure, shortened: as §1
# [58] = biological target: GlcNAc(b1-3)[GlcNAc(b1-6)]GlcNAc(b1-4)GlcNAc
# Procedure, shortened: as §1
# [59] = biological target: GlcNAc(b1-4)Gal(b1-4)GlcNAc
# Procedure, shortened: as §1
# [60] = biological target: GlcNAc(b1-4)GlcNAc(b1-4)GlcNAc
# Procedure, shortened: as §1
# [61] = biological target: GlcNAc(b1-4)GlcNAc(b1-4)GlcNAc(b1-4)GlcNAc(b1-4)GlcNAc
# Procedure, shortened: as §1
# [62] = biological target: GlcNAc(b1-4)GlcNAc(b1-4)GlcNAc(b1-4)GlcNAc(b1-4)GlcNAc(b1-4)GlcNAc
# Procedure, shortened: as §1
# [63] = biological target: GlcNAc(b1-4)[GlcNAc(b1-6)]GalNAc
# Procedure, shortened: as §1
# [64] = biological target: GlcNAc(b1-6)Gal(b1-4)GlcNAc
# Procedure, shortened: as §1
# [65] = biological target: GlcNAc(b1-6)GalNAc
# Procedure, shortened: as §1
# [66] = biological target: Kdn(a2-3)Gal(b1-3)GlcNAc
# Procedure, shortened: as §1
# [67] = biological target: Kdn(a2-3)Gal(b1-4)GlcNAc
# Procedure, shortened: as §1
binder,measurement,setting,value
"RSVL (Crotalus atrox), P21963 (protein) NNCPLDWLPMNGLCYKIFNQLKTWEDAEMFCRKYKPGCHLASFHRYGESLEIAEYISDYHKGQENVWIGLRDKKKDFSWEWTDRSCTDYLTWDKNQPDHYQNKEFCVELVSLTGYRLWNDQVCESKDAFLCQCKF",glycan array binding signal (z-score),[1],-0.366
same,glycan array binding signal (z-score),[2],-0.144
same,glycan array binding signal (z-score),[3],0.068
same,glycan array binding signal (z-score),[4],-0.362
same,glycan array binding signal (z-score),[5],0.952
same,glycan array binding signal (z-score),[6],-0.369
same,glycan array binding signal (z-score),[7],-0.328
same,glycan array binding signal (z-score),[8],0.698
same,glycan array binding signal (z-score),[9],0.604
same,glycan array binding signal (z-score),[10],0.686
same,glycan array binding signal (z-score),[11],1.49
same,glycan array binding signal (z-score),[12],0.298
same,glycan array binding signal (z-score),[13],0.363
same,glycan array binding signal (z-score),[14],-0.23
same,glycan array binding signal (z-score),[15],-0.068
same,glycan array binding signal (z-score),[16],-0.171
same,glycan array binding signal (z-score),[17],5.41
same,glycan array binding signal (z-score),[18],4.03
same,glycan array binding signal (z-score),[19],4
same,glycan array binding signal (z-score),[20],5.05
same,glycan array binding signal (z-score),[21],-0.365
same,glycan array binding signal (z-score),[22],-0.363
same,glycan array binding signal (z-score),[23],-0.368
same,glycan array binding signal (z-score),[24],-0.355
same,glycan array binding signal (z-score),[25],-0.362
same,glycan array binding signal (z-score),[26],-0.362
same,glycan array binding signal (z-score),[27],-0.363
same,glycan array binding signal (z-score),[28],-0.351
same,glycan array binding signal (z-score),[29],-0.362
same,glycan array binding signal (z-score),[30],-0.367
same,glycan array binding signal (z-score),[31],-0.364
same,glycan array binding signal (z-score),[32],-0.038
same,glycan array binding signal (z-score),[33],-0.347
same,glycan array binding signal (z-score),[34],-0.358
same,glycan array binding signal (z-score),[35],3.98
same,glycan array binding signal (z-score),[36],4.76
same,glycan array binding signal (z-score),[37],0.559
same,glycan array binding signal (z-score),[38],-0.058
same,glycan array binding signal (z-score),[39],0.124
same,glycan array binding signal (z-score),[40],-0.367
same,glycan array binding signal (z-score),[41],-0.366
same,glycan array binding signal (z-score),[42],-0.36
same,glycan array binding signal (z-score),[43],-0.364
same,glycan array binding signal (z-score),[44],-0.366
same,glycan array binding signal (z-score),[45],-0.294
same,glycan array binding signal (z-score),[46],-0.36
same,glycan array binding signal (z-score),[47],3.53
same,glycan array binding signal (z-score),[48],-0.364
same,glycan array binding signal (z-score),[49],-0.364
same,glycan array binding signal (z-score),[50],-0.366
same,glycan array binding signal (z-score),[51],-0.364
same,glycan array binding signal (z-score),[52],-0.367
same,glycan array binding signal (z-score),[53],-0.369
same,glycan array binding signal (z-score),[54],-0.107
same,glycan array binding signal (z-score),[55],-0.368
same,glycan array binding signal (z-score),[56],-0.369
same,glycan array binding signal (z-score),[57],-0.368
same,glycan array binding signal (z-score),[58],-0.361
same,glycan array binding signal (z-score),[59],-0.369
same,glycan array binding signal (z-score),[60],-0.369
same,glycan array binding signal (z-score),[61],-0.327
same,glycan array binding signal (z-score),[62],-0.369
same,glycan array binding signal (z-score),[63],-0.369
same,glycan array binding signal (z-score),[64],0.382
same,glycan array binding signal (z-score),[65],1.02
same,glycan array binding signal (z-score),[66],-0.345
same,glycan array binding signal (z-score),[67],-0.366
